The supplement of paper PMC4967469

Legend:
Test in all cases: Viability of human cancer cell lines after 72 h of drug (GDSC screen)
Tipifarnib = compound: Cn1cncc1[C@@](N)(c1ccc(Cl)cc1)c1ccc2c(c1)c(-c1cccc(Cl)c1)cc(=O)n2C [Tipifarnib]; settings: top dose 16 µM; top dose inferred
Method: (§1)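 Human cancer cell lines in 384-well plates, medium with 10% serum, drug for 72 h over a 256-fold dose range (nine 2-fold or five 4-fold steps up to the top dose). Adherent lines were fixed and stained with the nucleic acid dye Syto60, suspension lines read with resazurin; signal relative to control wells, capped at 0 and 100%. One two-parameter sigmoid per drug and line, fitted in a mixed model over all curves with the slope shared within a line.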

GSK-1904529A = compound: CCc1cc(Nc2nccc(-c3c(-c4ccc(OC)c(C(=O)Nc5c(F)cccc5F)c4)nc4ccccn34)n2)c(OC)cc1N1CCC(N2CCN(S(C)(=O)=O)CC2)CC1 [GSK-1904529A]; settings: top dose 1.024 µM; top dose inferred
Method: as §1

PFI-1 = compound: COc1ccccc1S(=O)(=O)Nc1ccc2c(c1)CN(C)C(=O)N2 [PFI-1]; settings: top dose 10 µM; top dose inferred
Method: as §1

NG-25 = compound: CCN1CCN(Cc2ccc(NC(=O)c3ccc(C)c(Oc4ccnc5[nH]ccc45)c3)cc2C(F)(F)F)CC1 [NG-25]; settings: top dose 10.24 µM; top dose inferred
Method: as §1

| Cell Line | AUC (Tipifarnib) | IC50 (Tipifarnib) [µM] | AUC (GSK-1904529A) | IC50 (GSK-1904529A) [µM] | AUC (PFI-1) | IC50 (PFI-1) [µM] | AUC (NG-25) | IC50 (NG-25) [µM] |
| --- | --- | --- | --- | --- | --- | --- | --- | --- |
| SW837 (large intestine, adherent) | 0.719 | 5.19 | 0.952 | > 1.02 | 0.857 | > 10 | 0.958 | > 10.2 |
| SK-MEL-24 (melanoma, adherent) | 0.601 | 2.02 | 0.975 | > 1.02 | 0.898 | > 10 | 0.78 | 5.17 |
| K2 (melanoma, adherent) | 0.752 | 6.72 | 0.955 | > 1.02 | 0.827 | 8.68 | 0.958 | > 10.2 |
| WM793B (melanoma, adherent) | 0.504 | 1.03 | 0.976 | > 1.02 | 0.901 | > 10 | 0.827 | 7.18 |
| SK-MEL-30 (melanoma, adherent) | 0.679 | 3.25 | 0.974 | > 1.02 | 0.863 | 9.42 | 0.872 | > 10.2 |
| UMC-11 (lung carcinoid, adherent) | 0.927 | > 16 | 0.991 | > 1.02 | 0.835 | 5.62 | 0.879 | 8.56 |
| HCC1500 (breast, adherent) | 0.757 | 5.72 | 0.987 | > 1.02 | 0.89 | > 10 | 0.944 | > 10.2 |
| LCLC-97TM1 (large cell lung carcinoma, adherent) | 0.605 | 2 | 0.976 | > 1.02 | 0.864 | > 10 | 0.831 | 7.39 |
| OVCAR-5 (ovary, adherent) | 0.851 | > 16 | 0.976 | > 1.02 | 0.832 | 8.24 | 0.925 | > 10.2 |
| JEG-3 (urogenital system, adherent) | 0.738 | 4.41 | 0.964 | > 1.02 | 0.947 | > 10 | 0.991 | > 10.2 |
| WM35 (melanoma, adherent) | 0.682 | 3.24 | 0.971 | > 1.02 | 0.76 | 3.55 | 0.754 | 3.47 |
| 5637 (bladder, adherent) | 0.502 | 1.02 | 0.989 | > 1.02 | 0.896 | > 10 | 0.847 | 6.51 |
| GMS-10 (glioma, adherent) | 0.871 | 14.8 | 0.988 | > 1.02 | 0.84 | 6.82 | 0.982 | > 10.2 |
| RH-41 (rhabdomyosarcoma, adherent) | 0.856 | 9.73 | 0.985 | > 1.02 | 0.85 | 5.77 | 0.992 | > 10.2 |
| CAPAN-1 (pancreas, adherent) | 0.855 | 15 | 0.984 | > 1.02 | 0.943 | > 10 | 0.972 | > 10.2 |
| T-24 (bladder, adherent) | 0.747 | 4.9 | 0.984 | > 1.02 | 0.844 | 6.66 | 0.949 | > 10.2 |
| NCI-H1792 (lung adenocarcinoma, adherent) | 0.791 | 6.4 | 0.989 | > 1.02 | 0.894 | > 10 | 0.938 | > 10.2 |
| HT-1376 (bladder, adherent) | 0.799 | 9.26 | 0.974 | > 1.02 | 0.916 | > 10 | 0.985 | > 10.2 |
| EFM-19 (breast, adherent) | 0.555 | 1.53 | 0.923 | > 1.02 | 0.795 | 7.67 | 0.757 | 5.33 |
| SNU-423 (liver, adherent) | 0.478 | 0.859 | 0.953 | > 1.02 | 0.87 | > 10 | 0.81 | 6.57 |
| HMV-II (melanoma, adherent) | 0.31 | 0.258 | 0.968 | > 1.02 | 0.853 | > 10 | 0.777 | 5.09 |
| BHY (head and neck, adherent) | 0.5 | 0.999 | 0.985 | > 1.02 | 0.841 | 6.97 | 0.8 | 4.98 |
| 23132-87 (stomach, adherent) | 0.764 | 6.02 | 0.971 | > 1.02 | 0.925 | > 10 | 0.825 | 6.43 |
| SN12C (kidney, adherent) | 0.782 | 7.56 | 0.981 | > 1.02 | 0.923 | > 10 | 0.985 | > 10.2 |
| ML-1 (thyroid, adherent) | 0.603 | 2.02 | 0.887 | > 1.02 | 0.955 | > 10 | 0.883 | > 10.2 |

The IC50 comes from the fitted curve, where viability falls to half of the control; a fit beyond the top or the lowest dose is shown as a bound at that dose. The AUC spans the tested range (256-fold, ending at the top dose) of the same fit: 1 means no effect, lower means more sensitive. Any top dose called inferred was calculated from the reported fits.
